# Measurements as given in publication PMC4336329 (PLoS ONE, 2015).
# Among all 310,000 compounds or so, about 14,000 (4.5%) showed an effect of 50% or more. The effect is printed as a negative number. The list shows a part of the results.
# Molecular target: human ether-à-go-go-related gene (hERG) potassium channel (human, UniProt Q12809)
# Experiment: primary screen, population patch clamp on CHO cells stably expressing hERG
# 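Also: peak tail current of the secondary pulse compared with the same well before compound.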
# Sequence of human ether-à-go-go-related gene (hERG) potassium channel (Q12809 whole entry, looked up): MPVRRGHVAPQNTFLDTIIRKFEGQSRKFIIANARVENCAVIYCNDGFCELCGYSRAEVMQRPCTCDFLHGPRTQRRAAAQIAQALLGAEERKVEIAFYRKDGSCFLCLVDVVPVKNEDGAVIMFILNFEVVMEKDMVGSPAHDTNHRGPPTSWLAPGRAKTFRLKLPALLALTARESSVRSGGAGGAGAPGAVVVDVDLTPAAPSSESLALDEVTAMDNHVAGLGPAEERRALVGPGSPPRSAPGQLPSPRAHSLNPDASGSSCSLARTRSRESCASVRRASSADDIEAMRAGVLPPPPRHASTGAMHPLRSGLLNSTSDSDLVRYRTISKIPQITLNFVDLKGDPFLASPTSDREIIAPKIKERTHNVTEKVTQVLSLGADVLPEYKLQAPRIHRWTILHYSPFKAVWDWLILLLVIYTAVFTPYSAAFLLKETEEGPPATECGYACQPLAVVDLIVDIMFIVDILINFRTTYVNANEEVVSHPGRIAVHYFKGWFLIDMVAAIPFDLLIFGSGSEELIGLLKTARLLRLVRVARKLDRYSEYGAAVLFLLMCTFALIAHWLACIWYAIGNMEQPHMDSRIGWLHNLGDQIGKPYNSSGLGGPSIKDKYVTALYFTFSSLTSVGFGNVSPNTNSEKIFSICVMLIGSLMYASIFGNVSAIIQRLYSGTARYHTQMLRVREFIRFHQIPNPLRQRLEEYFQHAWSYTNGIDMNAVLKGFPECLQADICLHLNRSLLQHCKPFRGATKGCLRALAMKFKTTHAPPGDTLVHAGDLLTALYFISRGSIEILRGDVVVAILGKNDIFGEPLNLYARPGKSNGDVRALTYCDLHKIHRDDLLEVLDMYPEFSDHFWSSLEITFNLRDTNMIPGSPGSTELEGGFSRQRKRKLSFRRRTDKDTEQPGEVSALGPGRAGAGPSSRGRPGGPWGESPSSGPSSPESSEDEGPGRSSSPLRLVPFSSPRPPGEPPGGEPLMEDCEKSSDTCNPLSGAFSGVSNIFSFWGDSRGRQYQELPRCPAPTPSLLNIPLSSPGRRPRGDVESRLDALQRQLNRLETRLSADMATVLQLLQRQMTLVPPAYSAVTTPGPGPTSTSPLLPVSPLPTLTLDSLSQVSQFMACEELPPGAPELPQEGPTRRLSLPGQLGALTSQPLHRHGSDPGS
row,Structure (SMILES),"hERG current change (%, negative = inhibition) at 10uM"
1,N#Cc1ccccc1CN1C(=O)S/C(=C/c2cccn2-c2cccc(C(=O)O)c2)C1=O,3.87%
2,CC(=O)c1cccc(NC(=O)N2C[C@H]3C[C@@H](C2)c2cccc(=O)n2C3)c1,2.1%
3,Cc1ccc2c(c1)COc1c3ccc(C(=O)N4CCOCC4)cc3nn1-2,-10.9%
4,CON(C)S(=O)(=O)c1cccc(C(=O)NC2CCSc3ccccc32)c1 (centres unmarked),-9.64%
5,O=c1[nH]c(=S)[nH]cc1S(=O)(=O)c1cccc(Cl)c1,7.48%
6,O=C(COc1ccccc1F)NC12CC3CC(CC(C3)C1)C2,-11.8%
7,CCN(C(=O)COC(=O)c1cncc(Br)c1)C1CCS(=O)(=O)C1 (centres unmarked),29.4%
8,O=c1ccnc2n1COCS2,4.62%
9,CCc1nnc(NC(=O)CCC(=O)NCc2ccc(OC)cc2)s1,-1.92%
10,COc1ccccc1CNC(=O)c1ccc(CS(=O)(=O)c2ccc(C)cc2)o1,-23.6%
11,Cl.NC(=NCCc1ccccc1)c1cccc([N+](=O)[O-])c1,-57.7%
12,CCS(=O)(=O)c1ccc(O)c(NC(=O)COc2ccc(Br)cc2)c1,-3.73%
13,CSCCC(NC(=O)c1ccc(Cl)cc1)C(=O)OCC(=O)Nc1ccc(C#N)cc1 (centres unmarked),-34.2%
14,CCc1ccccc1OCCCCN1CCCCC1.O=C(O)C(=O)O,-30%
15,Cc1cccc(C(=O)Nc2cc(NC(=O)c3cccs3)ccc2C)c1,8.96%
16,Cc1ccc(NC(=O)CSC(C)c2nc3ccccc3c(=O)[nH]2)cc1 (centres unmarked),12.1%
17,CCSc1ncc(Cl)c(C(=O)Nc2ccccc2OC)n1,19%
18,COc1ccc(CN(C(=O)/C=C/C(=O)c2ccc(OC)cc2O)C(C(=O)NC2CCCCC2)c2ccncc2)cc1 (centres unmarked),-13.2%
19,Cc1ccc(Oc2ccc(/C=N/O)cn2)cc1,-1.45%

row,Structure (SMILES),"hERG current change (%, negative = inhibition) at 10uM"
1,COc1ccc(NC(=O)CS(=O)c2cccc(Cl)c2)cc1 (centres unmarked),-3.23%
2,COc1ccc(S(=O)(=O)Nc2ccccc2C(=O)NCc2cccnc2)cc1OC,3.07%
3,CCC(=O)N(Cc1cc(=O)[nH]c2ccccc12)c1ccc(C)cc1,-39.3%
4,COc1ccc(/C=C2\SC(=O)N(CCC(=O)NC3CCS(=O)(=O)C3)C2=O)cc1 (centres unmarked),5.13%
5,COC(=O)c1cc2c(=O)n3ccccc3nc2n(Cc2cccnc2)c1=N,-64%
6,Cc1ccc(Oc2nc(CN3CCOCC3)nc3sc4c(c23)CCC(C)C4)cc1C (centres unmarked),7.99%
7,COc1ccccc1CC(=O)N1CCOCC1,21%
8,C=CCN=C1CC(C)(C)CC(=O)/C1=C(\O)CCCN1C(=O)c2ccccc2C1=O,-23.5%
9,O=C(N/N=C/c1cccc(O)c1)c1cc(C2CC2)nc2ccccc12,1.18%
10,Cc1nc2ccccc2c(=O)n1NC(=O)c1ccc([N+](=O)[O-])cc1Cl,-14.8%
11,O=C(O)CSC(C(=O)Nc1ccc(Br)cc1)c1ccc(Cl)cc1 (centres unmarked),15.3%
12,Cc1ccc(C)c(NC(=S)NNC(=O)c2sccc2C)c1,-1.62%
13,CCO[C@@H]1OC(C(=O)NCc2ccccc2)=C[C@H](c2ccc(C(F)(F)F)cc2)[C@H]1CCCO,-38.9%
14,CCOC(=O)C[C@H]1c2ccc(C(F)(F)F)cc2S(=O)(=O)N1Cc1ccccc1,-28.8%
15,C[C@H]1CN=C(Nc2ccccc2)N1CCCC1CCCCC1,-62.2%
16,O=C(C1CC(=O)N(C2CCCC2)C1)N1CCC(Cc2ccccc2)CC1 (centres unmarked),-24.4%
17,CCOc1ccccc1CN1CCNC(=O)C1CC(=O)NCc1nc(C)cs1 (centres unmarked),-28.1%
18,O=C(NC(=S)NC(CO)Cc1ccccc1)c1ccc(F)cc1 (centres unmarked),10.2%
19,O=C(Nc1ccccc1)c1ccccc1NC(=O)[C@H]1CCCC[C@H]1C(=O)O,18.8%

row,Structure (SMILES),"hERG current change (%, negative = inhibition) at 10uM"
1,Cc1cc(C(=O)Nc2ccccc2)c2ccccc2n1,12.2%
2,COCCNC(=S)Nc1ccc(N2CCCCC2)cc1,0.421%
3,COc1ccc(N2CC(C(=O)N3CCN(c4ccccc4F)CC3)CC2=O)cc1 (centres unmarked),-29.3%
4,Clc1ccccc1Sc1cnc2ccccc2n1,-23.4%
5,Cc1ccc(CSCC2Nc3ccc(C(=O)N4CCN(c5ccc(F)cc5)CC4)cc3NC2=O)cc1 (centres unmarked),16.5%
6,CCOc1ccc(OCC)c(S(=O)(=O)n2cnc(C)c2)c1,4.89%
7,CCNc1nc(NC(C)C)nc(Oc2ccc(OCc3ccccc3)nn2)n1,-9.37%
8,COc1ccc(-c2ccc3nnc(SCC(=O)Nc4ccc(NC(C)=O)cc4)n3n2)cc1,6.82%
9,CCCCCCC12CCC(C(=O)O)(CC1)CC2,-5.84%
10,CNC(=S)NNC(=O)c1oc2nc(-c3ccccc3)cc(C)c2c1N,-33.2%
11,COc1ccc(CC(=O)NC(=S)NNC(=O)COc2c(C)cccc2C)cc1,6.52%
12,O=C(NCc1ccco1)c1cc(-c2cccs2)nc2ccccc12,-1.68%
13,O=C(O)CCC1COc2ccccc2O1 (centres unmarked),15.6%
14,CCc1ccc(NC(=O)c2ccc(Cn3cc([N+](=O)[O-])cn3)cc2)cc1,8.86%
15,COc1ccc(S(=O)(=O)N(CC(=O)Nc2cccnc2)c2ccccc2OC)cc1,-9.68%
16,CN(Cc1ccccc1)S(=O)(=O)c1ccc(OCC(=O)Nc2cccc([N+](=O)[O-])c2)cc1,-9.01%
17,CCOC(=O)c1c(C)[nH]c(C)c1S(=O)(=O)N(C)Cc1ccco1,10%
18,COC(=O)c1cccc(NC(=O)NC23CC4CC(CC(C4)C2)C3)c1,0.641%
